# From the supplement of paper PMC8728848
# The list shows a part of the results.
# B1: SP15308A-bot-339-19-339 (Bacteroides ovatus) (protein)
# chain: ACNNEWEDEQYEQYISFKSPIPAGGEGVTDIYVRYKEDGKVTYRLPIVVSGSTTNTLDREVHIAVDKDTLETLNIERFSIHRPGLWYTALEEDKYDFPKTVHISAGSSVEQLNIDFNLQGIDMLEKWVLPLTIVDDPSYNYKSHPRKNYAKALLRVIPFNNYSGSYTSSAMKVYTYINGKPDTNARTANKRTGYVINDNTVFFYAGLISEDLDKEVREKYKINVHFNEDGTLHMEQGDPTNKMKFELIGTPTYSKTSVMDATRPYLERRYVQIMFEYDFEDFSYGGNGVDVIPIKYKVEGSMTLQRNINTQIPDEDQQIEW
# How the values were obtained:
# Test in all cases: glycan array binding signal (z-score within array); higher = stronger binding
# Settings in all cases: glycan notation: IUPAC condensed, linker removed
# [1] = target: Neu5Ac(a2-6)GlcNAc(b1-4)GlcNAc(b1-4)GlcNAc
# How it was run: (§1)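 Negative Z-scores can be read as non-binding. The Z-score is calculated within each array and then averaged across arrays of one protein sequence at different concentrations or buffers and across linkers. Arrays, 3228 in all, were curated from the Consortium for Functional Glycomics database and kept only where the protein sequence was available.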
# Neu5Ac(a2-8)Neu5Ac = target: Neu5Ac(a2-8)Neu5Ac
# How it was run: as §1
# [2] = target: Neu5Ac(a2-8)Neu5Ac(a2-3)Gal(b1-3)GalNAc(b1-4)[Neu5Ac(a2-3)]Gal(b1-4)Glc
# How it was run: as §1
# [3] = target: Neu5Ac(a2-8)Neu5Ac(a2-3)Gal(b1-3)GalNAc(b1-4)[Neu5Ac(a2-8)Neu5Ac(a2-3)]Gal(b1-4)Glc
# How it was run: as §1
# [4] = target: Neu5Ac(a2-8)Neu5Ac(a2-3)Gal(b1-4)Glc
# How it was run: as §1
# [5] = target: Neu5Ac(a2-8)Neu5Ac(a2-3)Gal(b1-4)GlcNAc
# How it was run: as §1
# [6] = target: Neu5Ac(a2-8)Neu5Ac(a2-3)[Gal(b1-3)GalNAc(b1-4)]Gal(b1-4)Glc
# How it was run: as §1
# [7] = target: Neu5Ac(a2-8)Neu5Ac(a2-3)[GalNAc(b1-4)]Gal(b1-4)Glc
# How it was run: as §1
# [8] = target: Neu5Ac(a2-8)Neu5Ac(a2-8)Neu5Ac
# How it was run: as §1
# [9] = target: Neu5Ac(a2-8)Neu5Ac(a2-8)Neu5Ac(a2-3)Gal(b1-4)Glc
# How it was run: as §1
# [10] = target: Neu5Ac(a2-8)Neu5Ac(a2-8)Neu5Ac(a2-3)[Gal(b1-3)GalNAc(b1-4)]Gal(b1-4)Glc
# How it was run: as §1
# [11] = target: Neu5Ac(a2-8)Neu5Ac(a2-8)Neu5Ac(a2-3)[GalNAc(b1-4)]Gal(b1-4)Glc
# How it was run: as §1
# [12] = target: Neu5Ac(a2-8)Neu5Ac(a2-8)Neu5Ac(a2-8)Neu5Ac(a2-3)[GalNAc(b1-4)]Gal(b1-4)Glc
# How it was run: as §1
# [13] = target: Neu5Ac(a2-8)Neu5Gc(a2-3)Gal(b1-4)GlcNAc
# How it was run: as §1
# [14] = target: Neu5Ac(b2-6)Gal(b1-4)GlcNAc
# How it was run: as §1
# Neu5Ac(b2-6)GalNAc = target: Neu5Ac(b2-6)GalNAc
# How it was run: as §1
# [15] = target: Neu5Ac9Ac(a2-3)Gal(b1-3)GlcNAc
# How it was run: as §1
# [16] = target: Neu5Ac9Ac(a2-3)Gal(b1-4)GlcNAc
# How it was run: as §1
# [17] = target: Neu5Ac9Ac(a2-6)Gal(b1-4)GlcNAc
# How it was run: as §1
# [18] = target: Neu5Gc(a2-3)Gal(b1-3)GlcNAc
# How it was run: as §1
# [19] = target: Neu5Gc(a2-3)Gal(b1-3)[Fuc(a1-4)]GlcNAc
# How it was run: as §1
# Neu5Gc(a2-3)Gal(b1-4)Glc = target: Neu5Gc(a2-3)Gal(b1-4)Glc
# How it was run: as §1
# [20] = target: Neu5Gc(a2-3)Gal(b1-4)GlcNAc
# How it was run: as §1
# [21] = target: Neu5Gc(a2-3)Gal(b1-4)GlcNAc(b1-3)Gal(b1-4)GlcNAc(b1-2)Man(a1-3)[Neu5Gc(a2-3)Gal(b1-4)GlcNAc(b1-3)Gal(b1-4)GlcNAc(b1-2)Man(a1-6)]Man(b1-4)GlcNAc(b1-4)GlcNAc
# How it was run: as §1
# [22] = target: Neu5Gc(a2-3)Gal(b1-4)[Fuc(a1-3)]GlcNAc
# How it was run: as §1
# [23] = target: Neu5Gc(a2-6)Gal(b1-4)GlcNAc
# How it was run: as §1
# Neu5Gc(a2-6)GalNAc = target: Neu5Gc(a2-6)GalNAc
# How it was run: as §1
# [24] = target: Neu5Gc(a2-8)Neu5Ac(a2-3)Gal(b1-4)GlcNAc
# How it was run: as §1
# [25] = target: Neu5Gc(a2-8)Neu5Gc(a2-3)Gal(b1-4)GlcNAc
# How it was run: as §1
# [26] = target: Neu5Gc(a2-8)Neu5Gc(a2-3)Gal(b1-4)GlcNAc(b1-3)Gal(b1-4)GlcNAc
# How it was run: as §1
# [27] = target: Neu5Gc(a2-8)Neu5Gc(a2-6)Gal(b1-4)GlcNAc
# How it was run: as §1
# [28] = target: Neu5Gc(b2-6)Gal(b1-4)GlcNAc
# How it was run: as §1
binder,measurement,setting,value
B1,glycan array binding signal (z-score),[1],-0.453
same,glycan array binding signal (z-score),Neu5Ac(a2-8)Neu5Ac,-0.247
same,glycan array binding signal (z-score),[2],-0.497
same,glycan array binding signal (z-score),[3],0.03
same,glycan array binding signal (z-score),[4],-0.384
same,glycan array binding signal (z-score),[5],-0.345
same,glycan array binding signal (z-score),[6],-0.083
same,glycan array binding signal (z-score),[7],-0.466
same,glycan array binding signal (z-score),[8],-0.123
same,glycan array binding signal (z-score),[9],-0.509
same,glycan array binding signal (z-score),[10],-0.048
same,glycan array binding signal (z-score),[11],-0.3
same,glycan array binding signal (z-score),[12],-0.366
same,glycan array binding signal (z-score),[13],-0.21
same,glycan array binding signal (z-score),[14],-0.305
same,glycan array binding signal (z-score),Neu5Ac(b2-6)GalNAc,-0.463
same,glycan array binding signal (z-score),[15],-0.51
same,glycan array binding signal (z-score),[16],-0.391
same,glycan array binding signal (z-score),[17],-0.311
same,glycan array binding signal (z-score),[18],-0.106
same,glycan array binding signal (z-score),[19],-0.412
same,glycan array binding signal (z-score),Neu5Gc(a2-3)Gal(b1-4)Glc,-0.1
same,glycan array binding signal (z-score),[20],-0.188
same,glycan array binding signal (z-score),[21],0.181
same,glycan array binding signal (z-score),[22],0.629
same,glycan array binding signal (z-score),[23],-0.371
same,glycan array binding signal (z-score),Neu5Gc(a2-6)GalNAc,-0.285
same,glycan array binding signal (z-score),[24],0.014
same,glycan array binding signal (z-score),[25],-0.427
same,glycan array binding signal (z-score),[26],-0.077
same,glycan array binding signal (z-score),[27],-0.088
same,glycan array binding signal (z-score),[28],0.645
